This note sets out measurements from the RNAGym collection of RNA variant scans (doi:10.1093/nar/gkz1192).

Read counts are not given, so values of variants with three or more changes are uncertain.

To fix the notation:
B1: CPEB3 Ribozyme (parent)
chain: UAACAGGGGGCCACAGCAGAAGCGUUCACGUCGCAGCCCCUGUCAGAUUCUGGUGAAUCUGCGAAUUCUGCUGUAUAUCUC

The variants in the data set derive from B1. Nature of the data set: self-cleavage, relative activity (ratio to wild type); higher = more cleavage; in vitro, sequencing. The gist of the method: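 Libraries of CPEB3 self-cleaving ribozyme mutants came from rounds of error-prone PCR and carried barcodes, which DNA sequencing matched to variants. In vitro transcription used T7 RNA polymerase at 37°C for 5 hours, with a further 15 min in DNase I before EDTA stopped the reaction; the ribozymes cleaved during both steps. The RNA was reverse transcribed with template switching and sequenced on Illumina. Relative activity is the cleaved/total read fraction of a variant divided by that of the unmutated ribozyme, averaged over three batches with at least 5 reads.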
A20G G24A A28G U31C U41C A45U: the self-cleavage stood at 0.18.
Then A20G A21G U41C U48C A57U U80C, with 0.12; and G19U U41A A45G A57G, with 0.17; and G19U U54A U66C, with 0.14.
To G19U C40A A45G belongs 0.11; to A20G C44A U48C U60C G61A A77U, 0.06; to A20G C23A U43A C68A U69A, 0.14.
To A20G A21G A56G A57G U67C belongs 0.19; to A20G A21G A77G, 0.4.
As to A20G A28G U41A A57G U72C, the self-cleavage was determined as 0.25.
To A20G A45G U49A U58C U80C belongs 0.1; to A20G A21U A57G A64G, 0.25.
Regarding A20G A28G A45G U49C, the self-cleavage came to 0.09.
To A20G A56U A64G belongs 0.32.
To A20C U49A U72A U78C belongs 0.22; to A20G G52U G53A U72A U78C, 0.34.
Then A20G C23U U51C G52U, with 0.27.
In the case of A20G A21G U26C U43C, the self-cleavage was 0.09.
To G19U U26C C32A U48C belongs 0.17.
For A20G C29U U60C, the self-cleavage was 0.24.
Then A20G A21U A28U U51A, with 0.12.
Turning to G19U A56C U80C, the self-cleavage is 0.26.
To A20C A21G U60A C62U belongs 0.17.
To A20G A45G A65G belongs 0.32.
To G19U A28U A65G belongs 0.15.
Consider A20G C32A G53U, for which the self-cleavage worked out at 0.3.
Then A20G C37U U41C A56G A75G, with 0.
Then A20G G30A U31C A57G, with 0.06; and A20G C32A U41C U49C C50U, with 0.1; and A20G A21G U51C U54C, with 0.37.
Then G19U A21U U31C G63A, with 0.18; and A20G A64G A77U U80C, with 0.51; and A20G A21G A47G U66C U69C G73A, with 0.11.
For A20G C34A A45G G61A, the self-cleavage was 0.18.
Consider G19U U26C U31A A35G A64G, for which the self-cleavage was 0.07.
Then G19U A47G U48A U60C U80C, with 0.24.
As for A20G A45G U78C, the self-cleavage turned out to be 0.48.
On to A20G C32U U43A U60C C71U U76C, for which the self-cleavage was determined as 0.05.
In the case of A20G A28G C37A C62U U69G A77G, the self-cleavage is 0.03.
As for A20G A28G U54C A64G U67C U69C U74A, the self-cleavage turned out to be 0.05.
To A20G A35C A47G belongs 0.41.
Then A20G A45G A47U, with 0.34; and A20G G24U C32G, with 0.15.
As to A20G G24C U41C A56G U60C G73A, the self-cleavage was 0.04.
Then A20G G55U U80A, with 0.98; and A20G C27G U60C, with 0.25; and A20G G24A G36A U43C A65G U72A, with 0.09.
With A20G A35G G61U U76A, the self-cleavage was 1.1.
Then G19U U25C A28U A45G U69C, with 0.05.
Then A20G G33C U41C, with 0.
To A20C U31A G33A A35G U41C A45G belongs 0.03; to A20G A28U A64G, 0.39.
As for A20G A45C A47G, the self-cleavage stood at 0.27.
As to A20G G33A C71A U72G C81U, the self-cleavage amounted to 0.05.
In the case of A20C A65G U69C, the self-cleavage is 0.41.
Then A20G A21G U25C U26C A35C G52U, with 0.45; and A20G A21C G22A U41C A57G U76A, with 0.07.
Then A20C G24C U74C U80A, with 0.21; and A20G G24C U26A A57G, with 0.23.
Turning to A20G A28U A45G U58A U67C U72C, the self-cleavage worked out at 0.09.
To A20G G33C U41C A45U U67C U72C belongs 0.04; to A20G A28G A75G U78A, 0.67; to A20G A35G U51C C68A U72A, 0.87.
Then A20G A47G C62U G73A U80A, with 0.22; and A20G G33U U41A A45U U66C, with 0.11.
Then A20G G33C U41C A56G U72C, with 0.06.
Regarding A20G A28U C38U A57G U60C U67G U72A, the self-cleavage is 0.05.
Consider G19U C23U U26C U41C A75U, for which the self-cleavage was 0.28.
Then G19U C37A U51C, with 0.11; and A20G A35G U60A U72A, with 0.48; and A20G A47U A56G A65C, with 0.34.
Then A20C C27A A45G, with 0.14; and A20G A45C U54C, with 0.17.
Then A20G A21G A75C, with 0.11; and A20G A35G U69C A75U, with 0.89; and A20G G30U A57G, with 0.06.
Turning to A20G A35G U49A A64G A75U, the self-cleavage worked out at 0.94.
To A20G A28G U66C G70C U76C belongs 0.04; to A20G A47G U80C, 1.08; to A20G A56G G63A U67C, 0.5.
Then A20G G30A G33A A47G U51C A64G A75G, with 0.06; and A20G A45U A56U U72A, with 0.15; and A20G A21G U26C U72C, with 0.05.
Then A20G C40U U41C U72A, with 0.36.
Consider A20G A64U U72C, for which the self-cleavage was 0.43.
For G19U A35U A57U A65G, the self-cleavage was 0.08.
To A20G A28G U41C belongs 0.38; to A20G A28G U41A, 0.46.
A20G A28U G63A: the self-cleavage was 0.39.
To A20G A21G C29U G53A belongs 0.09; to A20G G24A U41C, 0.17.
Then G19U U48C U51C U54C, with 0.21; and A20G A35G U60G C71G, with 0.22; and A20G A64G G70U U72C U74C, with 0.15.
With A20G C62U U72A, the self-cleavage came out at 0.16.
Then A20C A21U C44A U60A U78C, with 0.1; and A20G A35C G46A U66C, with 0.14.
Then G19U A35G U51A, with 0.52; and G19U U25C U26C U41G A45G, with 0.37.
To A20G A28G U31C U49C belongs 0.04.
For A20G G63A G70C A77U, the self-cleavage was found to be 0.13.
In the case of A20G A21G U25C A64G U69C U72C, the self-cleavage came out at 0.1.
Then A20G A35U A45G U69C, with 0.19.
To A20G A45G U58C U69C belongs 0.5; to A20G A56G U69C, 0.26; to A20G A35U A57U, 0.22.
Then A20G C23U A64G U69C, with 0.15.
A20G A21G C23U U67C: the self-cleavage amounted to 0.05.
Then A20C A64G U78A, with 0.22; and A20G G24A U25C C32A, with 0.3.
To A20G A35U A75G belongs 0.24.
Then A20C U54A C59A A65G C68A, with 0.04.
As to A20G A21U U51A U80C, the self-cleavage was 0.14.
In the case of A20G A57G U60A A65U A77G, the self-cleavage was 0.12.
Then A20G C40U A64G, with 0.06.
Then A20G C29U U54C U69C, with 0.14; and A20C U66C U76A U80C, with 0.23; and A20G A56G U67A, with 0.72.
Then A20G A28U C34U U54C U67A A75G, with 0.05.
For the variant A20G A21G A45G U58C, the self-cleavage was found to be 0.
Then G19U A35G U51C G73U, with 0.36.
Then A20G A45G U66A U76C, with 0.37; and A20G G55A U69C U74A U80C, with 0.82.
To A20C A28G U41C A45G belongs 0.17; to A20G A35G U48C U49C U60C U76C, 0.12.
For the variant A20G A21G A45U U54C A56G A64G, the self-cleavage was 0.
Regarding A20G A35G U51C A64G, the self-cleavage amounted to 1.04.
Then A20G A45U U54C G61C U74A, with 0.19; and A20G A28G U31C U69C, with 0.16; and A20G G22U A35U U43A U80C, with 0.28.
To G19U C34U U49C belongs 0.05.
As for A20G C29U G36U A45G U58C A75G, the self-cleavage was 0.05.
To A20G A35G U54C A75U C79G belongs 1.28; to G19U U41C G73A U74C, 0.61; to A20G A65C U69C, 0.07.
Then A20G A21G U25A A45C G55A, with 0.33.
A20G A57G U66C U72A: the self-cleavage was determined as 0.14.
Turning to A20G A45G U60C U66C U67C A77G, the self-cleavage came to 0.24.
In the case of A20G A45C U72A, the self-cleavage stood at 0.3.
Turning to A20C C29U A45G, the self-cleavage was 0.05.
To A20G A35U U41C U49A U51C C59A G70A belongs 0.07.
To A20G C39A U43C belongs 0.39; to A20C A57G G73A, 0.46; to A20G A21G C71A, 0.05.
To A20G C40U U72C belongs 0.77.
Consider A20G G24A U26C, for which the self-cleavage worked out at 0.06.
For the variant A20G A21U A57G A64G U69A G73U, the self-cleavage stood at 0.04.
Then A20G C38U U51C, with 0.17; and A20C A28C U67A, with 0.09.
To A20G C37U U41C U58C U69C U72C belongs 0.13; to A20G A28C U72C, 0.2.
Then A20G G63C A64G, with 0.41; and A20G A57C U60C G73U U76C, with 0.09; and A20G A35G U58C U72C, with 0.99.
Consider A20G G42A U48A U72C, for which the self-cleavage came to 0.23.
Turning to A20G A35U U51C G63A, the self-cleavage came out at 0.28.
For the variant G19U G24C A35G U66C A77G U80C, the self-cleavage amounted to 0.13.
Then A20G A21U U48C U78C, with 0.28; and A20G A64G U74C, with 1.19.
Then A20G A21G A64U, with 0.37; and A20G A28U C37A G42A U69A, with 0.07.
Then A20G G24U A28G A45G U58C U60C, with 0.09; and A20C U51A A57G, with 0.1.
As for A20G A28U U51A, the self-cleavage is 0.63.
To A20G A35U U49C A64G U72A U80C belongs 0.05.
To A20G A57G U72A belongs 0.36; to A20G A56G A65U, 0.14.
